Test results from PubChem BioAssay AID662 (National Center for Advancing Translational Sciences (NCATS), 2007).
Hit rate of the full screen: of about 71,000 compounds, about 1,800 (2.5%) were called active. This list was built around the results that the source calls inconclusive (neither active nor inactive); the mix of calls is not that of the screen. The call rests on the fitted dose curve; in most records, active means well fitted activation curve with a large enough effect in the signal ratio, with a control signal flat (not every such curve was filed as active); inconclusive means small, poorly fitted or top-dose-only effect, or effect the other way, or a change in a side signal; inactive means flat fitted curve, though single readings scatter; the % refers to the signal ratio. A potency beside an inconclusive call is a rough fit, not a confirmed value.

assay: Cell signaling CRE-BLA (Fsk stim); conditions: CHO CRE-bla reporter (cAMP response element driving beta-lactamase), forskolin EC10, beta-lactamase ratio; activity change, negative = inhibition: at 38.2 µM (top of the series) unless noted; on activity change, negative = inhibition: % of control where 0% means no effect
Outline: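 Modulation of forskolin signalling: compounds in titration series added with EC10 NKH 477 to CHO cells carrying a CRE-driven beta-lactamase reporter, 3 h, 37C. CCF4 FRET ratio (460/530 nm, ex 405 nm) gives %activity and AC50.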
Potency means the concentration at half of the fitted maximal effect; tags describe the fitted curve by direction and shape.

SMILES | activity change, negative = inhibition | Potency
N#Cc1cccc(-c2nc(Nc3ccccc3)c3ccccc3n2)c1 | inconclusive: 25.8% | –
O=C1CSC2=NCN(c3ccc4c(c3)OCO4)CN12 | inconclusive: 26.5% [at 7.6 µM] | –
Cn1cccc1C(=O)N1CCC2(CCCN(c3ccccn3)C2)CC1 | inactive: -13.1% | –
COc1ccc(Oc2ncc3nc(CCc4ccccc4)c(=O)n(CCC#N)c3n2)cc1 | – | inconclusive: 15.8 µM [rising, single point]
Cc1ccc(CCNC(=O)c2coc3nc4ccccc4nc23)cc1 | – | inconclusive: 0.501 µM [rising, full curve]
O=C(Nc1nc2nc(-c3ccccc3)cc(-c3ccccc3)n2n1)c1ccco1 | – | inconclusive: 15.8 µM [rising, partial curve]
COc1ccc(C2CC3CC(c4ccccc4)N2O3)cc1 (centres undefined) | inconclusive: 4.8% [at 7.6 µM] | –
CCN1CCN(c2ccc(-n3c(C)nc4c(cnn4-c4ccccc4Cl)c3=O)cc2)CC1 | inactive: 26.6% | –
c1ccc2c(c1)Cn1nc(Cc3nc4c(s3)CCCC4)nc1-2 | inconclusive: 67.4% | –
CCn1cc(C(=O)OC(C)C(=O)Nc2c(C)n(C)n(-c3ccccc3)c2=O)c(=O)c2ccc(C)nc21 (centres undefined) | inactive: 5.2% | –
CC1CCCC(C)N1C(=O)Cn1c(SCC(=O)Nc2ccc3c(c2)OCO3)nc2ccccc21 (centres undefined) | inactive: -10.3% | –
CCC(c1nnnn1Cc1ccco1)N(Cc1cc2cc(C)cc(C)c2[nH]c1=O)CC1CCCO1 (centres undefined) | inactive: 9.95% | –
CCOC(=O)c1ccc(NC(=O)CSc2nc3c(c(=O)n2CC)SC(C)C3)cc1 (centres undefined) | – | inconclusive: 12.6 µM [rising, single point]
CCOC(=O)C1=C(C)N=c2s/c(=C\C(=O)OC)c(=O)n2C1c1ccc(OC)cc1 (centres undefined) | inconclusive: -19.6% | –
COc1ccc(NC2=Nc3ccccc3CC2)cc1 | inconclusive: -9.98% | –
CC(C)Cn1c(SCC(=O)NC(=O)NC2CCCC2)nc2ccccc21 | inconclusive: 14.6% | –
COC(=O)[C@@]1(Cc2ccc(OC)cc2)[C@H]2c3cc(C(=O)N4CCCC4)n(Cc4nc5ccccc5[nH]4)c3C[C@H]2CN1C(=O)c1ccccc1 | inactive: -10.5% | –
O=C(Cc1cn2ccsc2n1)NCCc1ccc(F)cc1 | – | inconclusive: 3.16 µM [falling, single point]
Cc1ccc(Nc2cc(C)nc3nc(C)nn23)cc1 | – | inconclusive: 10 µM [rising, partial curve]
O=C(Oc1cc2oc(=O)c3c(c2cc1Cl)CCCC3)c1ccco1 | inconclusive: 15.9% | –
COc1ccc(CCNC(=O)Cn2cnc3c(cnn3C(C)(C)C)c2=O)cc1OC | inconclusive: 3.74% | –
CCOCCCNCC(=O)Nc1ccccc1N1CCOCC1 | inactive: 5.61% | –
CC[C@@H]1OC(=O)[C@@H](C)[C@H](O[C@@H]2C[C@@](C)(OC)[C@@H](O)[C@H](C)O2)[C@H](C)[C@H](O[C@@H]2O[C@@H](C)C[C@@H](N(C)C)[C@H]2O)[C@@](C)(O)C[C@H](C)C(=O)[C@@H](C)[C@H](O)[C@@]1(C)O | inconclusive: -8.89% | –
COC(=O)[C@@]1(Cc2ccc(F)cc2)[C@H]2c3cc(C(=O)N(C)C)n(Cc4c(CO)[nH]cc(C)c4=O)c3C[C@H]2CN1C(=O)c1ccccc1 | inactive: -22.4% | –
CCCCOCCCNC(=O)c1ccccc1OCC | – | inconclusive: 2.51 µM [rising, single point]

SMILES | activity change, negative = inhibition | Potency
CCC(Oc1ccccc1)C(=O)N1CCN(c2ccccn2)CC1 (centres undefined) | inconclusive: -21.7% | –
COC(=O)C1C(=O)c2c([nH]c(C(=O)OC3CCCC3C)c2C)CC1C (centres undefined) | – | inconclusive: 0.316 µM [rising, partial curve]
CCN(CCCNC(=O)c1c(C)cc(=O)oc1C)c1cccc(C)c1 | inconclusive: -18.1% | –
COc1ccccc1C(=O)N1CCc2ccccc21 | inconclusive: -0.43% | –
O=C(NCCn1ccc2ccccc21)c1ccc(S(=O)(=O)N2CCCCC2)cc1 | – | inconclusive: 12.6 µM [rising, single point]
Cc1nc(-c2cccc(S(=O)(=O)N3CCOCC3)c2)cs1 | inactive: 17.4% | –
CN1CCN(CCCn2cnc3c(=O)oc4ccccc4c32)CC1 | – | inconclusive: 12.6 µM [rising, partial curve]
CCN(CC)c1nc(N(CC)CC)[nH]c(=O)n1 | inconclusive: 10.9% | –
COc1ccc(N/C(C)=C2/C(=O)C(=O)N(CCO)C2c2ccc(Br)cc2)cc1 (centres undefined) | inconclusive: -23.7% | –
COC(=O)c1ccc(-n2c(C)cc(/C=N/n3cnnc3)c2C)cc1 | inactive: 9.1% | –
N#Cc1cc2c(=O)n3ccccc3nc2n(CCCn2ccnc2)c1=N | – | active: 10 µM
Cc1ccc(NC(=O)c2cc(-c3ccc(C)o3)nc3ccccc23)nc1 | – | inconclusive: 25.1 µM [rising, single point]
CC1(C)Cc2ccccc2C2CC(O)C(=O)N21 (centres undefined) | inconclusive: -14.7% | –
COc1ccc2oc(=O)c(C(=O)NCC3CCCO3)cc2c1 (centres undefined) | inactive: 6.35% | –
COC(CCN(C)C)(c1ccccc1)c1ccccc1 | inactive: -22.8% [at 7.6 µM] | –
O=C(c1ccncc1)c1nccn1-c1ccccn1 | inconclusive: 0.585% | –
O=C(Nc1ccc2c(c1)C(=O)N(C1CCCCC1)C2=O)C1CCCO1 (centres undefined) | – | inconclusive: 25.1 µM [rising, single point]
COCc1[nH]nc2c1C(c1ccsc1)C(C#N)=C(N)O2 (centres undefined) | inactive: -12.2% | –
OC(CN1c2ccccc2Sc2ccccc21)Cn1nnc2ccccc21 (centres undefined) | inconclusive: -27.9% | –
Cc1cc(C)c(C#N)c(N2CCCC2)n1 | – | inconclusive: 25.1 µM [rising, single point]
Cc1ccc(C(=O)Nc2ncc(Cc3ccc(F)cc3)s2)o1 | inconclusive: 14.6% | –
Fc1ccc(-n2c(Cc3ccccc3)nnc2SCc2nc(-c3cccs3)no2)cc1 | – | inconclusive: 15.8 µM [rising, single point]
Cc1cc(C)nc(-n2c(Nc3ccccc3)cc(=O)c3c(C)n(-c4ccccc4)c(=O)nc32)n1 | inconclusive: -8.61% [at 7.6 µM] | –
CCOc1ccccc1-c1nc(-c2ccc(C)nc2OC)no1 | – | inconclusive: 10 µM [rising, partial curve]
